# Assay results as given in US12274759B2, “Affibody proteins specific for B7-H3 (CD276)” (THE BOARD OF TRUSTEES OF THE LELAND STANFORD JUNIOR …, priority 2018, dated 2025).
# T1: mB7-H3 on neovasculature of mammary tumors (Mus musculus, UniProt Q8VE98)
# T1 construct: from tissue; host or cells: mammary tumours and normal mammary glands of FVB/N-Tg(MMTV-PyMT)634Mul mice, in vivo
# T1 sequence (Q8VE98 29-316): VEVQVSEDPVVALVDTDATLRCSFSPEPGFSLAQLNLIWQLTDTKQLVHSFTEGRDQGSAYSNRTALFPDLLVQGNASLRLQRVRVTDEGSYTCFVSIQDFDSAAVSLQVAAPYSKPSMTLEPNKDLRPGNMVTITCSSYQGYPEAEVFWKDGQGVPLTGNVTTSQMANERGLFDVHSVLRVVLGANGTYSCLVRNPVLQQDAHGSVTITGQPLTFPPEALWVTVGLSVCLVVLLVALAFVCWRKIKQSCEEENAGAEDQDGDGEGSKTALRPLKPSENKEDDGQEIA
# B1: MBABY-B7-H3: contrast microbubbles functionalized with ABYB7-H3 (biotinylated ABY on streptavidin-coated, lipid-shelled perfluorocarbon MB) (conjugate)
# chain: AEAKYAKEKIFAVGEIYWLPNLTHGQIMAFIAALNDDPSQSSELLSEAKKLNDSQAPKHHHHHH
# Molecular target: T1, mB7-H3 on neovasculature of mammary tumors
# Test: In vivo ultrasound molecular imaging in transgenic breast cancer mouse model FVB/N-Tg(MMTV-PyMT)634Mul
# From the text: Shown in FIGS. 5 and 6 are in vivo ultrasound molecular imaging of transgenic breast cancer mouse model (FVB/N-Tg(MMTV-PyMT)634Mul/J) using MB-B7-H3-affibody. All experiments were approved by the Institutional Administrative Panel on Laboratory Animal Care. The transgenic mouse model of breast cancer development FVB/N-Tg(MMTV-PyMT)634Mul was used. The mammary tissue of this transgenic mouse model progresses through four distinct histological stages from normal mammary tissues, through hyperplasia, to ductal carcinoma in situ (DCIS), and finally invasive breast carcinoma which highly recapitulates human breast cancer.
# For this study, inguinal mammary glands with invasive breast carcinoma were imaged by USMI (mean age, 7 weeks; range, 4-10 weeks) with 12 mammary tumors). Four control litter mates with normal mammary glands were used as controls. Mice were kept anesthetized with 2% isoflurane in oxygen at 2 Limin on a heated stage for 37° C. throughout the ultrasound imaging sessions. In an intra-animal comparison experiments, molecularly-targeted MBs (5×10^7 MB-B7-H3-affibody, MB-anti-B7-H3-antibody, and MB-Non-targeted) were injected intravenously through the tail vein of mice in random order to minimize any bias. Between imaging sessions using the three different contrast agents, a waiting interval of 30 min was used to allow for clearance of MBs from the vasculature. Also, at 30 min it was confirmed by USMI that no remaining MBs were present from the previous injection. In addition, control litter mates with normal mammary glands were scanned as tumor angiogenesis-negative models after the injection of all MB types to assess the contrast enhancement of non-angiogenic microvasculature. To further confirm binding specificity of molecularly-targeted MBs, an in vivo competition experiment was performed. In a subgroup of breast cancer-bearing mice, in vivo blocking of B7-H3 by injecting 100-150 μg B7-H3-affibody via the tail vein was performed in order to block binding of MB-B7-H3-affibody to its target B7-H3.
# All in vivo imaging studies were performed in contrast mode using a small-animal high resolution ultrasound imaging system (Vevo2100; VisualSonics, Canada). Images were acquired with a 21-MHz high-resolution linear transducer (M5250, VisualSonics; lateral and axial resolution of 165 μm and 75 μm, respectively), and all imaging parameters (focal length, 8 mm; transmit power, 10%; mechanical index, 0.2; dynamic range, 40 dB and a center frequency of 18 MHz) were kept constant during all imaging sessions. The transducer was fixed on a railing system to maintain the acoustic focus at the center of the mammary gland at the level of the largest transverse cross section.
# In addition, the transgenic mouse model of breast cancer development FVB/N-Tg(MMTV-PyMT)634Mul was used (The Jackson Laboratory) (21). The mammary tissue of this transgenic mouse model progresses through four distinct histological stages from normal mammary tissues, hyperplasia, ductal carcinoma in situ, and finally invasive breast carcinoma which highly recapitulates human breast cancer. For this study, female mice (mean age, 7 weeks; range, 4-10 weeks) with 10 mammary glands with invasive breast carcinoma were imaged with a mean size of 7 mm (range 5-9 mm) by US molecular imaging. The litter mates with normal mammary glands were used as controls,
# Ultrasound (US) molecular imaging. Contrast-enhanced US imaging was performed using a dedicated small-animal high resolution US imaging system (Veno 2100; VisualSonics). All mice were kept anesthetized with 2% isoflurane in room air at 2 L/min on a heated stage at 37° C. throughout the US molecular imaging sessions. Image acquisition was performed in the transverse plane using a high-resolution transducer (MS250; center frequency, 18MHz, lateral and axial resolution of 165 μm and 75 μm, respectively; focal length, 8 mm; transmit power, 10%; mechanical index, 0.2; dynamic range, 40 dB). […]
molecule,measurement,setting,value
B1,"binding to normal breast tissue, in vivo ultrasound imaging (FIG. 6)",Example 1,do not bind
same,targeted imaging signal in transgenic mice with breast tumors,"Example 1, 5×10^7 MB intravenously, 12 mammary tumors",5.45±1.18 a.u.
same,decrease of imaging signal after in vivo blocking of B7-H3 receptors with free B7-H3-affibody,"Example 1, 100-150 μg B7-H3-affibody via tail vein, compared to tumors without blocking agent",~60%
same,imaging signal in normal mice mammary glands,"Example 1, control litter mates with normal mammary glands",1.26±0.37 a.u.
same,in vivo ultrasound molecular imaging signal of tumors,"Example 1, tumors n=9",4.92±1.12 a.u.
same,US molecular imaging signal from mammary tumors of transgenic mice,"Example 3, MMTV-PyMT, 5×10^7 MB intravenously",9.6±2.0 a.u.
same,US imaging signal in normal mammary gland,"Example 3, age-matched control littermates",2.3±0.5 a.u.
same,US molecular imaging signal from tumors after in vivo blocking of mB7-H3 receptors,"Example 3, free ABY (150 μg) 24 hours prior to imaging, n=5",0.4±0.2 a.u.
same,US molecular imaging signal from tumors before blocking,"Example 3, same animals imaged before blocking, n=5",4.3±1.0 a.u.
